Reference: paper PMC4336329 (PLoS ONE, 2015)
Out of some 310,000 compounds screened, about 2,200 (0.71%) showed an effect of 50% or more. The effect is printed as a negative number. Some of the results follow.

Biological target: human ether-à-go-go-related gene (hERG) potassium channel (human, UniProt Q12809)
Experiment: primary screen, population patch clamp on CHO cells stably expressing hERG

Sequence of human ether-à-go-go-related gene (hERG) potassium channel (Q12809 whole entry, looked up): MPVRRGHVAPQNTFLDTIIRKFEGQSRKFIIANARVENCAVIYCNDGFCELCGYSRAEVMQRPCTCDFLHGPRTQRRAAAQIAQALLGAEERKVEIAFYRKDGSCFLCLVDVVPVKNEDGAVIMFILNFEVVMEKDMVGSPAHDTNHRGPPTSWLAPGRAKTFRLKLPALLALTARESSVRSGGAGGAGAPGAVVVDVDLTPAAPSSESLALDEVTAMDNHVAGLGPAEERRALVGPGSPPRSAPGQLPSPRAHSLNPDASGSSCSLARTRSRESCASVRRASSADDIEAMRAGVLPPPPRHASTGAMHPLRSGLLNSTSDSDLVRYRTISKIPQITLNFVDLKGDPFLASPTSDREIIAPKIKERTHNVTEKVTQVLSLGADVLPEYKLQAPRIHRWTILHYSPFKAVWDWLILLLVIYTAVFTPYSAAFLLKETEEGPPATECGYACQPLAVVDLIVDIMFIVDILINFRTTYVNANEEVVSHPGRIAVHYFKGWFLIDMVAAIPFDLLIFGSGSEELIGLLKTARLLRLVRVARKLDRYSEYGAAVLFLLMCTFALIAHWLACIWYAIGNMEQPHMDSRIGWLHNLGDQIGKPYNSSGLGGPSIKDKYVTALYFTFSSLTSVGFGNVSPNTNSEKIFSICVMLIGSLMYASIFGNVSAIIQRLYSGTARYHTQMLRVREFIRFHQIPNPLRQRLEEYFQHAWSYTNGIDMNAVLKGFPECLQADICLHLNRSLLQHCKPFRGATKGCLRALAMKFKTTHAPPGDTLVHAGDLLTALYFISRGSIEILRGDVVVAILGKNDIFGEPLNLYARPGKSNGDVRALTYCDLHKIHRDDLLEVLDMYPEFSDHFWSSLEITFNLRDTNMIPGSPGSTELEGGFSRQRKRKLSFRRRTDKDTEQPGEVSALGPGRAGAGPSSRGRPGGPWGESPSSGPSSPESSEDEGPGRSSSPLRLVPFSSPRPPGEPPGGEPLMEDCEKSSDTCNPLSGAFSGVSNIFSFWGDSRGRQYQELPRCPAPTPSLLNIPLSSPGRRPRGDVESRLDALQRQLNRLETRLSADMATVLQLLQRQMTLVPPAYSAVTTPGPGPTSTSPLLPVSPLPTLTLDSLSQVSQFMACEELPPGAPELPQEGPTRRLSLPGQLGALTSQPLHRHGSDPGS

Structure (SMILES)	hERG current change (%, negative = inhibition) at 1uM [%]
CC(=O)Nc1ccc(S(=O)(=O)N2CC(=O)NC(=O)C2)cc1	16.1
Cc1ccc(C)n1-c1cccc(C(=O)Nc2ccccc2)c1	5.12
COc1ccccc1CNC(=O)CCn1c(=O)oc2ccccc21	10.4
COc1ccc2c(c1)[nH]c1c(=O)n(/N=C/c3ccc(OC)c(CN4CCCC4)c3)cnc12	-29.6
Oc1ccc(/C=N/NC2=NCCCCC2)c(O)c1	1.62
CNC(=S)N(CCc1c(C)[nH]c2ccccc12)Cc1ccco1	6.17
C/C=C/C1=CC(=O)C[C@H](c2ccc(Cl)cc2)C1	12.4
CCc1nnc(NC(=O)CSc2nnc(-c3c[nH]c4ccccc34)n2C)s1	2.77
Cc1cc(C(=O)OCC(=O)Nc2cccnc2Cl)c2ccccc2n1	5.62
CCOC(=O)N1CCN(c2nc3ccccc3n3cnnc23)CC1	8.8
CC(C)CNC(=O)C(=O)Nc1cc2c3c(c1)C(C)C(=O)N3CCC2 (stereo not shown)	6.51
Cc1cc(C)c2nncn2n1	13.2
C=CCOC(=O)C1=C(C)Nc2nnnn2C1c1cccc(OC)c1OC (stereo not shown)	1.54
Cc1ccc(N(CC(O)Cn2c3ccccc3c3ccccc32)S(C)(=O)=O)cc1 (stereo not shown)	11
Cc1ccc(S(=O)(=O)N2C(=O)CCC2C(=O)N2CCCCC2)cc1 (stereo not shown)	11.2
Cc1ccc(CN2C(=O)C(Cc3ccccc3)Nc3ncnc(N4CCCCC4)c32)cc1.O=C(O)C(F)(F)F (stereo not shown)	12.5
CN1CCC(N(C)C(=O)/C=C/c2cn(-c3ccccc3)nc2-c2cccs2)CC1.Cl	-3.86
Cc1cccc(CS(=O)(=O)Cc2ccc(C(=O)NCCc3ccccc3)o2)c1	11
Cc1ccc(S(=O)(=O)N2CCCCC2)cc1C(=O)N(CCc1ccccc1)Cc1ccccc1	12.2
COC(=O)[C@@H]1C[C@H]2CC[C@H](O)C[C@H]2N1Cc1ccc(-c2ccccc2)cc1	18
CCC(C)(C)NC(=O)CN(C(=O)CCC(=O)Nc1cc(C)ccn1)c1ccc2c(c1)OCCO2	10.6
CC(C)[N+]1(C)[C@@H]2CC[C@@H]1CC(OC(=O)C(CO)c1ccccc1)C2.[Br-] (stereo partly shown)	8.36
COc1cc2nc(SCC(=O)NCc3ccco3)n(Cc3ccc(Cl)cc3)c(=O)c2cc1OC	6.06
Fc1ccc(CSc2ccc3nnc(-c4ccccn4)n3n2)cc1	-92.9
Cc1ccccc1OCC(O)Cn1c(=N)n(Cc2ccccc2)c2ccccc21.Cl (stereo not shown)	-48.4
COc1cc(NC(=O)CCS(=O)(=O)c2ccc3nc(C)sc3c2)cc(OC)c1OC	15.8
Cc1ccc(NC(=S)Nc2cccc(-c3n[nH]c(=S)o3)c2)cc1	17.7
COc1ccccc1C(C[N+](=O)[O-])c1c[nH]c2ccccc12 (stereo not shown)	6.53

Structure (SMILES)	hERG current change (%, negative = inhibition) at 1uM [%]
CC(=O)Nc1ccc(OCc2nnc(-c3ccccc3)o2)cc1	4.98
Cc1cccc2cc(C(c3nnnn3Cc3ccc4c(c3)OCO4)N3CCCC3)c(=O)[nH]c12 (stereo not shown)	2.16
Cn1ncc([N+](=O)[O-])c1C(=O)NC1CCCCC1	9.72
Cc1ccc(S(=O)(=O)N2CCN(C(=O)Cc3ccc4c(c3)OCCO4)CC2)cc1C	5.37
CN(CC(=O)Nc1ccc(OC(F)(F)F)cc1)C(=O)Cc1c(Cl)cccc1Cl	8.07
COC(=O)CNC(=O)c1cccc(F)c1	8.31
COc1ccc([N+](=O)[O-])cc1NC(=O)c1ccc(C)o1	7.4
CCSc1nnc(-c2ccncc2)n1Cc1ccccc1	-7.48
O=C(Sc1ccccc1)c1cccc(Cn2cc(C(F)(F)F)ccc2=O)c1	5.52
COc1ccc(-n2nc(C(=O)NCC(=O)NCCC3=CCCCC3)c3ccccc3c2=O)cc1OC	14.2
O=C(c1cc(-c2ccc3c(c2)OCO3)on1)N1CCN(c2ccccc2)CC1	2.88
CCOc1ccccc1N1CCN(CC(O)COC2CCCc3ccccc32)CC1 (stereo not shown)	-29.8
COC(=O)/C(C#N)=C/c1c(Oc2cccc(C)c2C)nc2ccccn2c1=O	-1.77
O=C(NCCc1ccccc1)C1CCN(C(=O)N2CCOc3ccccc32)CC1	4.98
CCOC(=O)CSc1nc(CC)nc2ccccc12	4.2
COc1ccc(CCNC(=O)C2=CCN(S(=O)(=O)c3ccc(F)cc3)CC2)cc1OC	3.59
Cn1nc(C(C)(C)C)cc1NC(=O)Nc1ccc(F)cc1F	12.9
O=C(c1ccccc1)N1CCN(c2ncnc3sc4c(c23)CCC4)CC1	-28.9
Cc1ccc(OC(=O)CCC(=O)OCCCC(F)(F)C(F)(F)F)cc1	3.12
COc1ccc(S(=O)Cc2ccc(C(=O)N3CCN(c4cccc(C)c4C)CC3)o2)cc1 (stereo not shown)	7.5
Cc1ccc(-c2nc(CS(=O)CC(=O)NCCCN3CCN(Cc4ccccc4)CC3)c(C)o2)cc1 (stereo not shown)	-4.76
Cc1ccc(CC(=O)NCC2CCCCC2)cc1	12.5
Cc1ccc2c(c1)c1nc3ccccc3nc1n2C	12.3
Cc1c([C@@H]2C[C@H]3CN(Cc4cccc(Cl)c4)C(=O)[C@]34CCCN24)cnn1C	-18.2
Cc1cc(Br)ccc1OCCCCNC(C)(C)C.O=C(O)C(=O)O	-7.77
Nc1nsc2ccccc12	14.3
O=P(c1ccccc1)(c1ccccc1)N(c1ccccc1)c1ccccc1	11.8
